According to PubChem BioAssay AID504466 (National Center for Advancing Translational Sciences (NCATS), 2011):
The campaign covered roughly 330,000 compounds. About 4,200 (1.3%) were called active. This list was built around the results that the source calls inconclusive (neither active nor inactive); the mix of calls is not that of the screen. Calls come from the whole dose curve; as a rule, active = well fitted activation curve with a large enough effect; inconclusive = small, poorly fitted or top-dose-only effect; inactive = no such curve, though single readings can be large or run the other way. A potency beside an inconclusive call is a rough fit, not a confirmed value.

assay: qHTS screen for small molecules that induce genotoxicity in human embryonic kidney (HEK293T) cells expressing luciferase-tagged ELG1; conditions: HEK293T ELG1-luciferase reporter, luminescence, 16 h; series mostly up to 46 µM; activity change, positive = activation: at the top concentration; note: nearly all actives have a fitted effect of over 60% in size; for activity change, positive = activation: % of control where 0% means no effect
From the text: NIH Molecular Libraries Probe Production Network [MLPCN] NIH Chemical Genomics Center [NCGC] MLPCN Grant: 1 R03 MH092164-01 Assay Provider: Kyungjae Myung, NHGRI, NIH Keywords: MLPCN, qHTS, NCGC, genotoxicity, cancer Assay Overview: Cancer cells divide rapidly compared to normal cells in the body. During cell division, cancer cells need to duplicate their genome by DNA replication. The failure of genome duplication leads to cancer cells' death. Therefore, inhibitors of DNA replication could specifically kill cancer cells. Based on this concept, many chemotherapeutic agents were developed and have been used to treat cancer patients. However, there are a limited number of agents available in the clinical setting, and some of those that do exist have low efficacy and severe side effects. Therefore, if we can find the compounds that effectively block DNA replication either by directly damaging DNA or by inhibiting other cellular mechanisms, the options for cancer treatment will be broadened. With this in mind, we developed a quantitative high-throughput ELG1-luciferase reporter gene assay. Since the level of human ELG1 protein is enhanced in response to genetic stresses, increases in luciferase activity can be used to identify compounds that cause genetic stress.
Assay Protocol Summary: For genotoxicity screening, 2,000 cells in 5 uL/well were dispensed into white, solid-bottom 1536-well plates using a solenoid-based dispenser. Following transfer of 23 nL compound or DMSO vehicle by a pin tool, the plates were incubated 16 hr at 37 °C and 5% CO2. 5 ul ONE-Glo (Promega) was then added to each plate and following a 30 min incubation at room temperature, luciferase activity was quantified on a ViewLux CCD-based plate reader.
Potency is the fitted concentration of half-maximal effect; tags give direction and shape of the fitted curve.

Compound	activity change, positive = activation	Potency
O=C(NCCS(=O)(=O)N1CCN(c2ccccc2F)CC1)c1ccc(Br)cc1	inactive: 3.05%	
Cc1ccccc1NC1=C/C(=N\S(=O)(=O)c2ccc(C(=O)O)cc2)c2ccccc2C1=O	inactive: -11.2%	
CCN(CC)S(=O)(=O)c1ccc(S(=O)(=O)N2CCCC(C(=O)NC3CC3)C2)cc1 (stereo not given)	inactive: -41.4%	
COc1cccc(C(=O)Nc2cccc(OCC(=O)O)c2)c1	inactive: 2.09%	
FC(F)(F)c1ccccc1NC(=S)NN=C1CCCCCC1	inactive: -6.77%	
CC1CC(C)CN(C(=O)COC(=O)c2cc3ccccc3oc2=O)C1 (stereo not given)		inconclusive: 9.2 µM [activator, partial curve, poor fit]
Cn1c(=O)c2c(nc(N3CCOCC3)n2CC(=O)c2ccccc2)n(C)c1=O	inactive: 0.54%	
COc1ccc(/C(N)=N/OC(=O)c2cccc([N+](=O)[O-])c2)cc1OC		inconclusive: 18.4 µM [activator, partial curve, poor fit]
CC(C)(C)N(Cc1ccccc1)C(=O)c1cc2ccccc2o1	inactive: -10.9%	
COCCn1c(C)c(C)c2c(NCCc3ccccc3)ncnc21		inconclusive: 0.58 µM [activator, full curve]
O=[N+]([O-])c1ccc(N=Nc2c(O)[nH]c3ccc(F)cc23)cc1		inconclusive: 18.3 µM [activator, single point]
CCOc1ccc(CNc2ccc3c(c2)nc(C)n3C)cc1		inconclusive: 23.1 µM [activator, single point]
COc1ccc(C)cc1NC(=O)CN1C(=O)C(=O)N(C2CCCC2)C1=O	inactive: -0.147%	
COc1ccc(-c2cc(C(=O)Nc3ccccc3SC)no2)cc1	inactive: 5.48%	
CC(=O)Nc1nnc(COc2ccc(Cl)cc2)s1		active: 14.6 µM
Cc1ccc(-c2csc(NC(=O)c3ccc(-c4ccccc4)cc3)n2)o1		active: 18.4 µM
Clc1ccc2nc(N3CCCCC3)[nH]c2c1		active: 2.06 µM
O=C(NCCc1ccccc1)c1ccccc1NS(=O)(=O)N1CCCC1		inconclusive: 20.6 µM [activator, partial curve, poor fit]
CCCN(C(=O)c1cc(-c2ccco2)nc2ccccc12)c1c(N)n(Cc2ccccc2)c(=O)[nH]c1=O		inconclusive: 8.2 µM [activator, single point]
CC(C)(C)c1ccc(C(=O)NC(CC(=O)O)c2ccc(OC3CCCC3)cc2)cc1 (stereo not given)	inactive: -0.128%	
CC1=NC(C)(C)Cc2cc(C)c(C)cc21	inactive: -0.161%	
Cc1ccc(-c2cnn(-c3cccc(C(F)(F)F)c3)c2N)cc1		inconclusive: 3.66 µM [activator, full curve, poor fit]
O=C(Nc1nnc(Cc2ccccc2)s1)c1ccccc1		inconclusive: 7.3 µM [activator, partial curve, poor fit]
N/C(=N\OC(=O)Cc1cccs1)c1ccc(Br)cc1		inconclusive: 20.6 µM [activator, single point]
CC(=O)Nc1cccc(-c2cnc(N)c(C(=O)c3cccnc3)n2)c1	inactive: -8.85%	

Compound	activity change, positive = activation	Potency
CCC(=O)Oc1ccc(-c2cnc3ccccc3n2)cc1		inconclusive: 6.51 µM [activator, partial curve]
CCN(C(=O)CSc1nnc(-c2ccc(OC)cc2)n1C(C)C)C1CCS(=O)(=O)C1 (stereo not given)	inactive: -0.82%	
CCOc1ccc(OCCC(=O)OCC(=O)Nc2cc(OCC)c(N3CCOCC3)cc2OCC)cc1		inconclusive: 18.3 µM [activator, single point]
CCOc1cccc(/C=N/NC(=S)Nc2ccccc2[N+](=O)[O-])c1O		active: 0.366 µM
Cc1ccc(-n2cc(C(=O)O)c(=O)cc2C)c(C)c1	inactive: -18.5%	
O=C(NN=Cc1c(O)ccc2ccccc12)c1ccc2c(c1)OCO2		inconclusive: 29.1 µM [activator, partial curve, poor fit]
Cc1nc2ccc(C(=O)N3CCCC(CO)(Cc4ccc(F)cc4F)C3)cc2nc1C (stereo not given)	inactive: -6.24%	
CCn1c(=O)c2c(n3c(=S)[nH]nc13)-c1ccccc1CC21CCCCC1	inactive: 4.87%	
O=S(=O)(c1ccccc1)c1ncc(C(F)(F)F)cc1Cl		inconclusive: 23.1 µM [activator, partial curve, poor fit]
CCCCCC(=O)Nc1ccc(C2C(=O)c3ccccc3C2=O)cc1		inconclusive: 20.6 µM [activator, single point]
N/C(=N\NC(=O)Nc1ccc(Cl)cc1)c1ccccn1		inconclusive: 20.6 µM [activator, partial curve, poor fit]
COC(=O)c1ccc(COc2cccc3c2CCN(Cc2ccccc2)C3=O)o1	inactive: 1.26%	
Cn1c(C(=O)NCc2ccccn2)cc2c(=O)n3ccccc3nc21		inconclusive: 11.6 µM [activator, partial curve]
Nc1[nH]n2c(=O)cc(-c3ccccc3)nc2c1N=Nc1ccc(S(N)(=O)=O)cc1	inactive: -0.339%	
O=S1(=O)CCN(Cc2csc(-c3cccs3)n2)CC1		inconclusive: 16.4 µM [activator, partial curve]
Cc1ccc(/C(N)=N/OC(=O)c2cccs2)cc1		active: 14.6 µM
CNC(=O)c1ccc(-c2nc(-c3ccccc3)cs2)cc1		inconclusive: 8.2 µM [activator, partial curve, poor fit]
O=C(c1cc2ccccc2oc1=O)N(Cc1ccco1)C1CCS(=O)(=O)C1 (stereo not given)		active: 18.4 µM
Cc1coc(C)c1C(=O)Nc1ccc2ccccc2c1		inconclusive: 10.3 µM [activator, partial curve]
Oc1ccc(C=Nc2ccccc2-c2nc3ccccc3[nH]2)c(O)c1		inconclusive: 18.4 µM [activator, partial curve, poor fit]
CCC(C)(C)NC(=O)C(Sc1ccccc1)c1ccccc1 (stereo not given)	inactive: -3.62%	
CC(NC(=O)c1ccco1)C(=O)N1CCN(c2cccc(C(F)(F)F)c2)CC1 (stereo not given)	inactive: -7.2%	
CCc1nnc(NC(=O)c2cc3ccccc3oc2=O)s1		inconclusive: 23.1 µM [activator, partial curve, poor fit]
O=C(CSC(=S)N1CCCCC1)c1c(F)cccc1F		inconclusive: 2.31 µM [activator, full curve]
O=C(CSc1nc2ccccc2c(=O)n1NC(=O)c1ccccc1)c1ccccc1		inconclusive: 1.3 µM [activator, full curve]

Compound	activity change, positive = activation	Potency
COc1ccc(NC(=O)Nc2cccc3c2O[C@@H](CN(C)CC2CCCCC2)[C@@H](C)CN([C@H](C)CO)C3=O)cc1	inactive: 0.517%	
CCCOc1ccc(/C=N/Nc2ccccn2)cc1OC		inconclusive: 4.61 µM [activator, full curve, poor fit]
O=C(Nc1ccc2[nH]ncc2c1)c1ccc(F)cc1		inconclusive: 10.3 µM [activator, partial curve, poor fit]
Cc1cc(C)cc(Nc2ncc3c(n2)CCCC3=O)c1		inconclusive: 2.59 µM [activator, partial curve]
CCOc1ccccc1C(=O)NCC(=O)NCCCc1ccccc1		inconclusive: 16.4 µM [activator, partial curve, poor fit]
Cc1ccccc1NC(=O)c1cc2ccccn2n1		inconclusive: 2.06 µM [activator, partial curve]
CCOC(=O)C1CCN(Cc2nnnn2CCc2ccccc2)CC1		inconclusive: 20.6 µM [activator, partial curve]
CC(C)CC(=O)Nc1ccc(Nc2ccccc2)cc1	inactive: -3.85%	
Cc1ccc(-c2nnc(N)s2)cc1		inconclusive: 25.9 µM [activator, partial curve, poor fit]
Cn1nc([N+](=O)[O-])nc1S(C)(=O)=O		inconclusive: 18.3 µM [activator, partial curve, poor fit]
Cc1nc(N)sc1N=Nc1ccccc1C(F)(F)F		inconclusive: 18.3 µM [activator, partial curve]
CCOC(=O)c1nc(NCCc2ccccc2)sc1C		inconclusive: 16.4 µM [activator, single point]
COc1cc(C(=O)Nc2ccc3c(c2)CCN3C(C)=O)cc(OC)c1OC		inconclusive: 16.4 µM [activator, single point]
Cc1cccc(OCc2nnc(SCC(=O)N(C)C3CCCCC3)o2)c1	inactive: -2.08%	
Nc1cc(=O)[nH]c(SCc2csc(-c3ccccc3)n2)n1		inconclusive: 16.4 µM [activator, partial curve, poor fit]
Cn1c(=O)cc(OCCCC(=O)NCc2cccnc2)c2ccccc21		inconclusive: 29.1 µM [activator, single point]
O=C(Nc1n[nH]c(C2CCCCC2)n1)C1CCCCC1		active: 20.6 µM
COc1ccc(NC(=O)c2cc(-c3cccs3)on2)cc1		active: 16.4 µM
O=C(Nc1cnn(Cc2ccc(F)cc2)c1)C(c1ccccc1)c1ccccc1	inactive: -5.79%	
COc1cccc(-c2cc(C(=O)NC3CCCCC3)no2)c1		inconclusive: 3.26 µM [activator, single point]
Nc1nc(-c2ccc(Br)cc2)cs1		inconclusive: 17.8 µM [activator, single point]
CC(C)CSc1nnc2c(n1)[nH]c1ccccc12		active: 0.651 µM
COc1cc(-n2c(=O)c3ccccc3n(CC(=O)c3ccccc3)c2=O)cc(OC)c1OC		inconclusive: 25.9 µM [activator, partial curve, poor fit]
Cc1ccc(NC(=O)c2ccc(COc3ccccc3)o2)nc1		inconclusive: 18.3 µM [activator, partial curve, poor fit]
CCCn1nnc(NC(=O)c2cccc(OCC)c2)n1		active: 18.4 µM
